The list shows a part of the results.
B1: ENSG00000070961:be:win_4851|3pUTR|ENSG00000070961|bound_else_gene|NA|bound_elsewhere_windowed (ssRNA)
RNA: GGGAGUUCUACAGUCCGACGAUCCAAUGUUUUUUUAAAAGACAUUUCAGCUUCUUUACUCAGUUCUGCAUAUACAGUGCAUCAGUCUGUUCUCUUUGACCACAAUUGGAAUACAUUUCAAGAUGGUAACAGCCCCAUGAAGUACAACAGAGGAUUGAGCAUCA
B2: chr7:137014887:137014989:+|CDS|ENSG00000181072|unk|FALSE|unique (ssRNA)
RNA: GGGAGUUCUACAGUCCGACGAUCGCUACUUGGCUACUGAUUAGAGAACGCAAAAUGAAUAACUCAACAAACUCCUCUAACAAUAGCCUGGCUCUUACAAGUCCUUAUAAGACAUUUGAAGUGGUGUUUAUUGUCCUGGUGGCUCAACAGAGGAUUGAGCAUCA
B3: chr4:110049619:110049852:-|3pUTR|ENSG00000170522|msi1|total|mutant (ssRNA)
RNA: GGGAGUUCUACAGUCCGACGAUCUUGUUCAAUGUGACAUAACCGUAUUAUAAUUGGUUAAGCCGCUUAAUGAUCCGGCAAACCCGAUGAAAAGAUCCGGGGCUUCCACACUGCACCGAUUACACGCACACCGCCACGCAUACACAACAGAGGAUUGAGCAUCA
B4: chr17:80295660:80295761:+|CDS|ENSG00000173821|msi1|total|mutant (ssRNA)
RNA: GGGAGUUCUACAGUCCGACGAUCGAGUAAACUGAAAACAGGCCUGAUUGUCCUUUUUGCCGUGGAAAAAAUUGAGCUUUUAUCCGAAGGCAGCCUGGACUGGUUGUGUCACCUCCUAACCUCAGAUGCCAGCUCACCAGAUGACAACAGAGGAUUGAGCAUCA
B5: chr2:158176520:158176661:-|CDS|ENSG00000153237|control|control|control (ssRNA)
RNA: GGGAGUUCUACAGUCCGACGAUCGCUGUUGUUGCUCAAUUUGAUCCUGUUAGAAUGAUGUCAGAUACAAUGGCAUCAAAAGCUAGAAUGGGCAUUGAAAUUGAAGAAGAAUUUAUUCUUCAAAAGCCACUCUUCACAUUGAAUCAACAGAGGAUUGAGCAUCA
B6: chr4:70689993:70690094:+|CDS|ENSG00000132467|unk|FALSE|unique (ssRNA)
RNA: GGGAGUUCUACAGUCCGACGAUCAGAGCCAAAAUUAGAAGAAGAGGCCAGGUUCGUGAAGUUCGUAAAGAAGAGCAACGUUAUAGUGGUGAAUUAUCUGGCAUUCGUGCAGGAGUUAAAAAGAGCAUUAAGCUUAAAUGAAGUCAACAGAGGAUUGAGCAUCA
B7: chr7:101137743:101137929:+|3pUTR|ENSG00000106366|msi1|total|mutant (ssRNA)
RNA: GGGAGUUCUACAGUCCGACGAUCCCACUGAGGCCCUUUGCAGGAUGGAACUACGGGGCUUACAGGAGCUUUUGUGUGCCUGGCCGAAACUAUUUCUGUUCCAGUCACAUUGCCAUCACUCUUGUACUGCCUGCCACCGCGGAGCAACAGAGGAUUGAGCAUCA
B8: chr5:56893553:56893673:+|CDS|ENSG00000095015|unk|total|mutant (ssRNA)
RNA: GGGAGUUCUACAGUCCGACGAUCUGCUCCAUCGAUCCCUUCACAUUUGUCUCCUGGUUUACGAGAUGUGGCUCUUCGUUGUUCCGAACUUCAACCUCAGGACAGACCUCCAUCAAGAGAGCUACUGAAGCAUCCAGUCUUUCGCAACAGAGGAUUGAGCAUCA
B9: chr2:1633339:1633490:-|3pUTR|ENSG00000130508|msi1|total|mutant (ssRNA)
RNA: GGGAGUUCUACAGUCCGACGAUCUUCAUAAGCCACAUUCCGAAACAGGUUUGCUUUCAGCUGUCACUUGCACACAUACUGCCCCGUUGUGAACCAAAUGUGAAAAAACCUCCUUCAUCCCAUUGUGUAUCUGAUACCUGCCGACAACAGAGGAUUGAGCAUCA
B10: chr2:135840511:135840612:-|3pUTR|ENSG00000076003|msi1|total|mutant (ssRNA)
RNA: GGGAGUUCUACAGUCCGACGAUCGCUUCAGCACUUCCUUUGGUGUGUUUCCUGUCCCAGUGAAGUUGGAACCAAAUAAUGUGCCGUCUCUAUAACCAAUACCUUUGUUUUCAUGUGUAAGAAAAGGCCCAUUACUUUUAAGGUCAACAGAGGAUUGAGCAUCA
B11: chr2:147927148:147927248:+|CDS|ENSG00000121989|msi1_unk|FALSE|overlapping (ssRNA)
RNA: GGGAGUUCUACAGUCCGACGAUCUGAAACCAUUGAAGAAUGUUGGGAUCACGACGCAGAAGCCAGGUUAUCAGCUGGAUGUGUAGGUGAAAGAAUUACCCAGAUGCAGAGACUAACAAAUAUUAUUACCACAGAGGACAUUGUCAACAGAGGAUUGAGCAUCA
B12: chr1:61462620:61462721:+|3pUTR|ENSG00000162599|unk|total|mutant (ssRNA)
RNA: GGGAGUUCUACAGUCCGACGAUCCUGUGGGCGUCCAUUCUUAUUCAACUAAAUCUCCACAGGUUUUUUGAGCUGGUGUGGAUCCGUUUAACUCUUGUAUUCAACCAUCCGUGCUACCACCUUCUCACAUUACAAUACAAUUACCAACAGAGGAUUGAGCAUCA
B13: chr12:110551788:110551968:-|CDS|ENSG00000196850|control|control|control (ssRNA)
RNA: GGGAGUUCUACAGUCCGACGAUCUUCUCAGGGACUUUAAUGCGGACGUGUGAACGUUUAGUAAAAGAAGGACGGUUCGUACCUAGUAAUCCCAUUGGAAUUCUCACCACAAGCUACUGUGAGUUGCUGCAAAAUAAAGUCCCUCAACAGAGGAUUGAGCAUCA
B14: ENSG00000198589:be:win_1401|CDS|ENSG00000198589|bound_else_gene|NA|bound_elsewhere_windowed (ssRNA)
RNA: GGGAGUUCUACAGUCCGACGAUCGCAUUCAAUUGGAGGAGUACAAGUACUAUUUCCACUUUUUGCACAGUUGGAUUACAGGCAAUAUUUGUCUGAUGAGAUUGAUUUGACUAUAUGUUCAACCUUGCUGGCCUUUAUCAUGGACAACAGAGGAUUGAGCAUCA
B15: chr7:115017934:115018035:+|3pUTR|ENSG00000135272|unk|FALSE|unique (ssRNA)
RNA: GGGAGUUCUACAGUCCGACGAUCUGAGAUGAAACGUAGUUUCUAGUUAUAUCAUUACUUAAAGGGCUUAAAAAGAAAAAACUUAGCAAACUUUUGAAUCUUUCUUUUAUUGCUAUUUACACAUACAUACACACAUACAAAACCCAACAGAGGAUUGAGCAUCA
B16: chr12:20680103:20680206:+|CDS|ENSG00000172572|unk|total|mutant (ssRNA)
RNA: GGGAGUUCUACAGUCCGACGAUCCUUACAGAACCACAAGAUGUGGAAGAAAGUCAUUGAAGAGGAGCAACGGUUGGCAGGCACCGAAAAUCAAUCCCUGGACCAGACCCCUCAGUCGCACUCUUCAGAACAGAUCCAGGCUAUCAACAGAGGAUUGAGCAUCA
B17: chr7:124031896:124032004:-|CDS|ENSG00000234224|unk|total|mutant (ssRNA)
RNA: GGGAGUUCUACAGUCCGACGAUCUACCCGCUCAAUUUUAUGGGCCUCAUCACCCUGAUGUAUUUACCUGGCUGGAUAUUCCUCCGUGUGUACCAGGACCUAAUUUCCAACGUGUUGUGGAGGGUGCAGUACGUACCAGCUAACCAACAGAGGAUUGAGCAUCA
B18: chr19:10133403:10133440:-|3pUTR|ENSG00000130816|msi1_unk|FALSE|overlapping (ssRNA)
RNA: GGGAGUUCUACAGUCCGACGAUCUUUUUUAUUAUGCAUUAUAUCAAAUCUACCACUGUAUGAGUGGAAAUUAAGACUUUAUGUAGUUUUUAUAUGUUGUAAUAUUUCUUCAAAUAAAUCUCUCCUAUAAACCACCCUGGGUGGCAACAGAGGAUUGAGCAUCA
B19: chr10:89213657:89213758:-|3pUTR|ENSG00000107798|msi1|total|mutant (ssRNA)
RNA: GGGAGUUCUACAGUCCGACGAUCUUACAAUACUGUCCGGUGGACAAAAUGACAAUUGAUAUGUUUUUCUGAUAUAAUUACUUCCGCUGCACUAACAGUACAAUGCUUGUUAAUGGUUAAUACCGGCAGGGCGAAUACUACUUUCAACAGAGGAUUGAGCAUCA
B20: chr9:127749210:127749665:-|CDS|ENSG00000095370|control|control|control (ssRNA)
RNA: GGGAGUUCUACAGUCCGACGAUCUUCCCACUGCGCUACCUCGAGGCCAGCUAUGGCCUGGGACAGGGGAGUAGCAAGCCUGCUAGCCCCGUCAGCCCCUCAGGCCCCAAGGGCAGCCACAUGAAGCGGCGCAGCGUCACCAUGCAACAGAGGAUUGAGCAUCA
B21: ENSG00000136451:be:win_101|CDS|ENSG00000136451|bound_else_gene|NA|bound_elsewhere_windowed (ssRNA)
RNA: GGGAGUUCUACAGUCCGACGAUCCCGUGGAGCCCCCUGAUCAGAAACCAUUGCUUCCAAUACCAAUAACUCAGAAACCUCAGGGUGCACCAGAAACAUUAAAGGAUGCCAUUGGGAUUAAAAAAGAAAAACCCAAAACUUCAUCAACAGAGGAUUGAGCAUCA
B22: ENSG00000070961:be:win_5701|3pUTR|ENSG00000070961|bound_else_gene|NA|bound_elsewhere_windowed (ssRNA)
RNA: GGGAGUUCUACAGUCCGACGAUCCAUUUACCCUAAAUAAGGGUGGUGGACUAUCUUGAAGAACCCUUUCAACUCUAAAAAUUGACCCUAUCAACUGGAGAGCCCACAAGGCAUAGGGAAUAGAGAAAAGGGAAAUGUUUUCAGCAACAGAGGAUUGAGCAUCA

Target: MSI1 full-length (mouse, UniProt Q61474 1-362)
Experiment: nsRBNS (natural sequence RNA bind-n-seq); RBNS binding buffer (assumed for nsRBNS): 25 mM Tris pH 7.5, 150 mM KCl, 3 mM MgCl2, 0.01% Triton X-100, 500 ug/ml BSA, 20 U/ml SUPERase-In, 4 C; UNK is unkempt and MSI1 is Musashi-1; names of the RNAs are library labels; protein concentration not given here; high values mean tight binding

UniProt Q61474, sequence (Q61474 whole entry): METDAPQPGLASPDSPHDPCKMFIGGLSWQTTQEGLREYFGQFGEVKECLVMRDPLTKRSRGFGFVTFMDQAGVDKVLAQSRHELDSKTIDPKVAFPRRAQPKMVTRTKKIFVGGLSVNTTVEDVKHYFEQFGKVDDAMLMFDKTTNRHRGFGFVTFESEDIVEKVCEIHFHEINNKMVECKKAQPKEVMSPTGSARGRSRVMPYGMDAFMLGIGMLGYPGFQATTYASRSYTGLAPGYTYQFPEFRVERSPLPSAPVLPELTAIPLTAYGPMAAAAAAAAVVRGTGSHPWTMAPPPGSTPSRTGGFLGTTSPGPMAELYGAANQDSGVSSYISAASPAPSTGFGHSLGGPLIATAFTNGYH

Binder	binding signal [enrichment R]
B1	0.446
B2	0.188
B3	0.468
B4	0.355
B5	0.406
B6	12.4
B7	0.331
B8	0.405
B9	0.388
B10	0.29
B11	1.1
B12	0.557
B13	0.701
B14	0.204
B15	14.7
B16	0.465
B17	0.457
B18	3.88
B19	0.363
B20	0.421
B21	0.491
B22	0.233

Reference: PMC12136788
